Experimental data taken from the supplement of paper PMC4967469.
By IC50 is meant the dose at which the fit gives 50% viability; a fit beyond the top or the lowest dose is shown as a bound at that dose. AUC is the area under the same curve over the 256-fold range up to the top dose, as a fraction; the more sensitive the line, the further below 1. For some of these results: Any top dose called inferred was calculated from the reported fits. For some of these results: An entry number marks a drug with two screens in the source, which often give different values.

What was measured:
Assay in all cases: Viability of human cancer cell lines after 72 h of drug (GDSC screen)
Thapsigargin = compound: C/C=C(/C)C(=O)O[C@H]1C(C)=C2[C@H]([C@@H]1OC(=O)CCCCCCC)[C@@](C)(OC(C)=O)C[C@H](OC(=O)CCC)[C@@]1(O)[C@H]2OC(=O)[C@@]1(C)O [Thapsigargin]; details: top dose 0.512 µM; top dose inferred
Protocol: (§1)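 Human cancer cell lines in 384-well plates, medium with 10% serum, drug for 72 h over a 256-fold dose range (nine 2-fold or five 4-fold steps up to the top dose). Adherent lines were fixed and stained with the nucleic acid dye Syto60, suspension lines read with resazurin; signal relative to control wells, capped at 0 and 100%. One two-parameter sigmoid per drug and line, fitted in a mixed model over all curves with the slope shared within a line.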

QL-X-138 = compound: C=CC(=O)Nc1cc(-n2c(=O)ccc3cnc4ccc(-c5cn[nH]c5)cc4c32)ccc1C [QL-X-138]; details: top dose 10.24 µM; top dose inferred
Protocol: as §1

GSK269962A = compound: CCn1c(-c2nonc2N)nc2cnc(Oc3cccc(NC(=O)c4ccc(OCCN5CCOCC5)cc4)c3)cc21 [GSK269962A]; details: top dose inferred
Protocol: as §1

MPS-1-IN-1 = compound: COc1cc(N2CCC(O)CC2)ccc1Nc1cc(Nc2ccccc2S(=O)(=O)C(C)C)c2cc[nH]c2n1 [MPS-1-IN-1]; details: top dose 20 µM; top dose inferred
Protocol: as §1

(5Z)-7-Oxozeaenol = compound: COc1cc(O)c2c(c1)/C=C/C[C@H](O)[C@H](O)C(=O)/C=C\C[C@H](C)OC2=O [(5Z)-7-Oxozeaenol]; details: top dose 10 µM; top dose inferred
Protocol: as §1

CP466722 = compound: COc1cc2ncnc(-n3nc(-c4ccccn4)nc3N)c2cc1OC [CP466722]; details: top dose 16 µM; top dose inferred
Protocol: as §1

Zibotentan = compound: COc1nc(C)cnc1NS(=O)(=O)c1cccnc1-c1ccc(-c2nnco2)cc1 [Zibotentan]; details: top dose 20 µM; top dose inferred
Protocol: as §1

ABT-888 = compound: C[C@]1(c2nc3c(C(N)=O)cccc3[nH]2)CCCN1 [ABT-888]; details: top dose 5 µM; top dose inferred
Protocol: as §1

CMK = compound: Cc1ccc(-c2c(C(=O)CCl)n(CCCO)c3ncnc(N)c23)cc1 [CMK]; details: top dose 4 µM; top dose inferred
Protocol: as §1

ABT-869 = compound: Cc1ccc(F)c(NC(=O)Nc2ccc(-c3cccc4[nH]nc(N)c34)cc2)c1 [ABT-869]; details: top dose 1.024 µM; top dose inferred
Protocol: as §1

CHIR-99021 = compound: Cc1cnc(-c2cnc(NCCNc3ccc(C#N)cn3)nc2-c2ccc(Cl)cc2Cl)[nH]1 [CHIR-99021]
Protocol: as §1

KU-55933 = compound: O=c1cc(-c2cccc3c2Sc2ccccc2S3)oc(N2CCOCC2)c1 [KU-55933]; details: top dose 10 µM
Protocol: as §1

[1] = top dose 2.5 µM, screen: GDSC drug entry 127
[2] = top dose 5 µM, screen: GDSC drug entry 1192
[3] = top dose 2.56 µM, screen: GDSC drug entry 154
[4] = top dose 10 µM, screen: GDSC drug entry 1241, top dose inferred

| Cell Line | AUC (Thapsigargin) | IC50 (Thapsigargin) [µM] | AUC (QL-X-138) | IC50 (QL-X-138) [µM] | AUC (GSK269962A; [1]) | IC50 (GSK269962A; [1]) [µM] | AUC (GSK269962A; [2]) | IC50 (GSK269962A; [2]) [µM] | AUC (MPS-1-IN-1) | IC50 (MPS-1-IN-1) [µM] | AUC ((5Z)-7-Oxozeaenol) | IC50 ((5Z)-7-Oxozeaenol) [µM] | AUC (CP466722) | IC50 (CP466722) [µM] | AUC (Zibotentan) | IC50 (Zibotentan) [µM] | AUC (ABT-888) | IC50 (ABT-888) [µM] | AUC (CMK) | IC50 (CMK) [µM] | AUC (ABT-869) | IC50 (ABT-869) [µM] | AUC (CHIR-99021; [3]) | IC50 (CHIR-99021; [3]) [µM] | AUC (CHIR-99021; [4]) | IC50 (CHIR-99021; [4]) [µM] | AUC (KU-55933) | IC50 (KU-55933) [µM] |
| --- | --- | --- | --- | --- | --- | --- | --- | --- | --- | --- | --- | --- | --- | --- | --- | --- | --- | --- | --- | --- | --- | --- | --- | --- | --- | --- | --- | --- |
| SJSA-1 (bone, adherent) | 0.363 | 0.0127 | 0.656 | 1.84 | 0.797 | 1.36 | 0.928 | > 5 | 0.87 | > 20 | 0.707 | 2.6 | 0.859 | > 16 | 0.982 | > 20 | 0.968 | > 5 | 0.94 | > 4 | 0.979 | > 1.02 | 0.982 | > 2.56 | 0.982 | > 10 | 0.971 | > 10 |
| SK-LMS-1 (soft tissue, adherent) | 0.157 | 0.00305 | 0.653 | 1.66 | 0.886 | > 2.5 | 0.654 | 0.818 | 0.896 | > 20 | 0.428 | 0.4 | 0.776 | 6.06 | 0.985 | > 20 | 0.974 | > 5 | 0.767 | 1.42 | 0.987 | > 1.02 | 0.799 | 1.16 | 0.765 | 3.48 | 0.885 | > 10 |
| SK-MEL-2 (melanoma, adherent) | 0.209 | 0.00426 | 0.808 | 5.54 | 0.978 | > 2.5 | 0.911 | > 5 | 0.987 | > 20 | 0.354 | 0.243 | 0.844 | 12.1 | 0.985 | > 20 | 0.976 | > 5 | 0.869 | 3.95 | 0.984 | > 1.02 | 0.925 | > 2.56 | 0.892 | > 10 | 0.974 | > 10 |
| SK-UT-1 (soft tissue, adherent) | 0.352 | 0.013 | 0.756 | 3.21 | 0.874 | 2.07 | 0.898 | > 5 | 0.989 | > 20 | 0.575 | 0.983 | 0.904 | > 16 | 0.989 | > 20 | 0.976 | > 5 | 0.864 | 2.99 | 0.989 | > 1.02 | 0.966 | > 2.56 | 0.943 | > 10 | 0.939 | > 10 |
| SNB75 (glioma, adherent) | 0.473 | 0.0261 | 0.92 | > 10.2 | 0.829 | > 2.5 | 0.841 | > 5 | 0.975 | > 20 | 0.672 | 2.37 | 0.913 | > 16 | 0.973 | > 20 | 0.979 | > 5 | 0.92 | > 4 | 0.966 | > 1.02 | 0.925 | > 2.56 | 0.915 | > 10 | 0.958 | > 10 |
| SNU-C2B (large intestine, adherent) | 0.356 | 0.0113 | 0.814 | 7.9 | – | – | 0.9 | > 5 | 0.916 | > 20 | 0.544 | 0.857 | 0.882 | > 16 | 0.98 | > 20 | 0.98 | > 5 | 0.91 | > 4 | 0.976 | > 1.02 | 0.968 | > 2.56 | 0.945 | > 10 | 0.979 | > 10 |
| SU-DHL-6 (B-cell lymphoma, suspension) | 0.2 | 0.00577 | 0.269 | 0.174 | 0.96 | > 2.5 | 0.936 | 4.81 | 0.868 | 10.9 | 0.858 | 5.08 | 0.495 | 0.971 | 0.994 | > 20 | 0.995 | > 5 | 0.714 | 0.834 | 0.995 | > 1.02 | 0.942 | > 2.56 | 0.9 | 6.92 | 0.89 | 6.41 |
| U-87-MG (glioma, adherent) | 0.709 | 0.139 | 0.672 | 2.11 | 0.982 | > 2.5 | 0.945 | > 5 | 0.907 | > 20 | 0.635 | 1.58 | 0.862 | > 16 | 0.969 | > 20 | 0.983 | > 5 | 0.936 | > 4 | 0.981 | > 1.02 | 0.985 | > 2.56 | 0.958 | > 10 | 0.985 | > 10 |
| WSU-NHL (lymphoid neoplasm, suspension) | 0.304 | 0.00973 | 0.868 | 7.48 | 0.901 | > 2.5 | 0.956 | > 5 | 0.85 | 12.4 | 0.565 | 0.919 | 0.802 | 6.77 | 0.99 | > 20 | 0.99 | > 5 | 0.951 | > 4 | 0.989 | > 1.02 | 0.986 | > 2.56 | 0.973 | > 10 | 0.883 | 8.5 |
